# This is one part of the list.
# B1: 105362805_105362925_2386_CDS_ENSG00000107957_ENST00000369774|human|control|control (ssRNA)
# RNA: GGGAGUUCUACAGUCCGACGAUCAGCAGAGCGGGGCUUCAGGUCGCCACUGGUUUUGGACAAGGAAGAGGAGGAGGAGGAAGAGGAGGAGCAGCAAGUGGUGUUGAUGGUGAUGGAUGAGGAAAAGGAGGCUGAGGAGUGGUUCAACAGAGGAUUGAGCAUCA
# B2: 119525768_119544910_3349_CDS_ENSMUSG00000030172_ENSMUST00000032279|mouse|control|control (ssRNA)
# RNA: GGGAGUUCUACAGUCCGACGAUCCUCGUUCUGAAGCUGCUCCUGAGUCAUCUUCUGCAGCUCAUUCUCCCAAGCUGCCUGCUCACCAUCUGCAUUAUAAGAAGCUGGUGGAGUGAGUCCACGGAGGAUUAAGGGGUCUCGGUCCAACAGAGGAUUGAGCAUCA
# B3: 5366851_5366971_99_3pUTR_ENSMUSG00000024841_ENSMUST00000025759|mouse|control|control (ssRNA)
# RNA: GGGAGUUCUACAGUCCGACGAUCAGAGGUCCUCCGGAUUUCCCGCCCCCUCUUCGUCCGUCCCUUUAACUCUUCCCUCCAUCAAGUGAGGCAAGCCUAAGUUCCGAGUGCGGGGCAGGAAAACGCAUUCUCCUCGGAGGUCUCCAACAGAGGAUUGAGCAUCA
# B4: chr7:118215863:118215864:-_ENSMUSG00000005610_ENSMUST00000162415|mus_mus|FALSE|FALSE (ssRNA)
# RNA: GGGAGUUCUACAGUCCGACGAUCUAUUGCAACAACUCAAGUAUUACUGAGCAAAGUGCAUCUCUACAGUAUUCAGUGUUGCUAUUCAGUUUUCUAACUUAAAACAGCCUAUGGUAACUGGCAGCAAAGAAGGUCCUUGCAAUACAACAGAGGAUUGAGCAUCA
# B5: chr3:33710417:33710418:+_ENSMUSG00000027677_ENSMUST00000099153|mus_mus|motif|central (ssRNA)
# RNA: GGGAGUUCUACAGUCCGACGAUCAGAAGUCACAGUUCUACUCAUGGAAAUUAAGACAAAGCUGUCCAGGGAACAUGCAAACGGUGGACAUAUUAAUGUAAAAGAAACUAAUGAUGACAGAACUGAGAAUCAAUUUAAAUUCUCCAACAGAGGAUUGAGCAUCA
# B6: 138014305_138014425_2771_3pUTR_ENSMUSG00000046447_ENSMUST00000050918|mouse|control|control (ssRNA)
# RNA: GGGAGUUCUACAGUCCGACGAUCUAAGAGGCAGCAGCUGAGUUCAUCGGUCUCUGCAGAUCAGGCAGGUGAUGUUUACAGAAGUUCCAGUUCCGAGAGUAAGGCAGUCAGAGCUAGAACCUGAACCCAAGUCCAGUCUCCCAGCAACAGAGGAUUGAGCAUCA
# B7: chr12:32625335:32625336:-_ENSMUSG00000002996_ENSMUST00000172314|mus_hu|FALSE|FALSE (ssRNA)
# RNA: GGGAGUUCUACAGUCCGACGAUCUGGGUAUUCUUGAUGUGAAACAUCUGAACUCAGCUGGUACAUGCCAGAUUGGGUAGGAUCACUUUGAACUGCCUGAAGUUCAGGAAGGUCAUCAAGCUCCAUGUGUUCAUCACAGGAGUUCAACAGAGGAUUGAGCAUCA
# B8: chr3:176740097:176740098:-_ENSG00000177565_ENST00000430069|hu_mus|hu_hu_hu_mus_True|28_68 (ssRNA)
# RNA: GGGAGUUCUACAGUCCGACGAUCUGUUUUGUAUACCACAAAAGGAGGCACUUUCAGUAUCUGCAAAAGGUAUUUAAUCCUAAAACAUACUCACCUAGAGGAUAACUAAAACAGAAUAUCUGUUACACUCUAAGACCUACUCCACAACAGAGGAUUGAGCAUCA
# B9: chr10:13244450:13244451:-_ENSMUSG00000019809_ENSMUST00000019945|mus_hu|FALSE|FALSE (ssRNA)
# RNA: GGGAGUUCUACAGUCCGACGAUCUUAUAUAUAUAUAUGUAUAUAAAAUAUCUAUAUUGAUUUUUAGUCAGUUUGGAACAAAUGUCCAUGUGUAACAAAUUAUUAACAAUUCUGAUAUUUGCACGUGUAUAUAUAUAUGCCCACCAACAGAGGAUUGAGCAUCA
# B10: chr6:135286264:135286265:-_ENSG00000112339_ENST00000367826|hu_hu|motif|central (ssRNA)
# RNA: GGGAGUUCUACAGUCCGACGAUCUUUGCCAGUUGGCAACUUAGAAUUUUUGCAGAGGUGAUUAUUAAUACUUCUUUGCAGCGGAUUUUAGCUUUAAUUUUUCUCUCUCAUCUAAAAACAUAUCAAUUGCACAUUGUUCCUUUGCAACAGAGGAUUGAGCAUCA
# B11: chr5:135508174:135508175:+_ENSG00000113658_ENST00000545279|hu_mus|FALSE|FALSE (ssRNA)
# RNA: GGGAGUUCUACAGUCCGACGAUCACUAGUAGAAGAUGCAUGAAAAGCUUCCCCAACACGAUUGUUUAAUUCAUAGUAGACAAUCGAACACCAGUGUUUGGGCUCCUCAUAGGCGACAGGCUGAACAUCUCUGCUGGAUAUGCUCAACAGAGGAUUGAGCAUCA
# B12: chr17:64631184:64631185:-_ENSMUSG00000024083_ENSMUST00000172818|mus_mus|motif|central (ssRNA)
# RNA: GGGAGUUCUACAGUCCGACGAUCUGGCUUGUUACACAGCAAUCUGCAGCAGUGUAAGUUUAAUCAGUAAGUGCCAUAACGGGUCAACAGUACAUAAAAGAAAACAAACAAACAAACCACACAAUUCACAAAUAUCCACAGUAUCAACAGAGGAUUGAGCAUCA
# B13: chr16:94664741:94664742:+_ENSMUSG00000040785_ENSMUST00000117648|mus_hu|mus_mus_mus_hu_False|78_88 (ssRNA)
# RNA: GGGAGUUCUACAGUCCGACGAUCUGGUACUGAUCUUGGUAGCUGAUACUCAGAAGAAAUGUUGGCCAAGGGUGUAUAUAUGCUGGUGUACUGGGGCAAACCUGGUAACACGUUUAUGUAUGCUGGCGGUGUCUGGGUGAUAUCCAACAGAGGAUUGAGCAUCA
# B14: 82831620_82833072_1808_CDS_ENSMUSG00000042724_ENSMUST00000035987|mouse|control|control (ssRNA)
# RNA: GGGAGUUCUACAGUCCGACGAUCCUGCACCGUGAACUUGUGCUGGAAAUCGGAGGGGAGGCUGAUGCGGUUGCCGUCCUUGAGCUUCAGCCGGCUCUUCCUGAACUUGCCCUUGCGUUUCUUCACCCGGGGCUUUUCCUGGCACAACAGAGGAUUGAGCAUCA
# B15: chr3:176767854:176767855:-_ENSG00000177565_ENST00000430069|hu_hu|hu_hu_hu_mus_False|58_108 (ssRNA)
# RNA: GGGAGUUCUACAGUCCGACGAUCGACAUCCUUGUUGCUGGGCACGUCCUGCCCUCCUUCCCGUAUGCAGUGUCUAAGUACUAACUGCGUAGGGCCACUCGUGCUGUUCUCACUGAGGUUCCAGAUUCUUGCCGUGGAGUCUCCCAACAGAGGAUUGAGCAUCA
# B16: chr3:121489220:121489221:-_ENSG00000173226_ENST00000310864|hu_mus|motif|central (ssRNA)
# RNA: GGGAGUUCUACAGUCCGACGAUCUGCCAGCUUUCACAGUACUCUCUAGGGAGGUUUGGUUCCACCGAUAAAUAACAUUCCGGAAUCGGUACUAAGCUCAUCCUUUGGAACAUCAACCUCAUCCCCUGGUUCUUCUCCAAGCUUCAACAGAGGAUUGAGCAUCA
# B17: chr12:55961067:55961068:-_ENSMUSG00000062929_ENSMUST00000078124|mus_mus|FALSE|FALSE (ssRNA)
# RNA: GGGAGUUCUACAGUCCGACGAUCUAAUAUCCUAGCUUAUCUAGAGAAUAAAUAAGAUACUGGAUAGGCCAAAGUGCAAAAAGAAUUUUUUUCUGAUCUCCAUUUUAUAACAUAAAUAAGCAUUUAUAAAAUUACCACUCUUUUCAACAGAGGAUUGAGCAUCA
# B18: chr3:10015032:10015033:+_ENSMUSG00000027533_ENSMUST00000029046|mus_mus|mus_mus_mus_hu_True|98_98 (ssRNA)
# RNA: GGGAGUUCUACAGUCCGACGAUCGUUUUUACCAUCACACGUAAUGAUACAAUCUGGCUUGGCCAUUGCGCCCAUUUUUCGCAAAGCUAUUCCCACUCCUAGCUCCUUCAUGUAUUCAUCAAAGCCUUUGCUGUCCACCAGGCGCAACAGAGGAUUGAGCAUCA
# B19: chr11:99246770:99246771:-_ENSMUSG00000019761_ENSMUST00000103131|mus_hu|motif|central (ssRNA)
# RNA: GGGAGUUCUACAGUCCGACGAUCAAAAGAAGAAAUACAGAAACCACAAAACACCUUGUAGACACCUUAUUUUCAAGGUCGGUUUCCAUAGACCAUCAAGACAGAAGUGUUUUCUUGGAGACUUUGUUUUCCAUGCAUCUGUAACAACAGAGGAUUGAGCAUCA
# B20: chr7:151048522:151048523:+_ENSG00000013374_ENST00000566856|hu_mus|hu_hu_hu_mus_True|38_78 (ssRNA)
# RNA: GGGAGUUCUACAGUCCGACGAUCCUGUUUCUUAUUUAUUACGAUCUUGAUGUAAUUUUCUUGAAGUCCGAAAGUUUCAGCUAUUUGACACCUCAGGUCUCUGCCAGUGACAUGCAAGCGGGUCUCCAACAAGCUUUUCUUAUCCAACAGAGGAUUGAGCAUCA
# B21: chr2:48026839:48026840:+_ENSG00000116062_ENST00000540021|hu_hu|hu_hu_hu_mus_False|28_108 (ssRNA)
# RNA: GGGAGUUCUACAGUCCGACGAUCAUAGUGUGCCACUAGCGUCCUAAAUCUGGAACAGUGGCGGUCAUCCGAAAACUGGCCGAUGAAAAACUUGCCCAGUGAAGUGUCAACAAAGCAAACACCAUACACACGAGUGUGACCAGACAACAGAGGAUUGAGCAUCA
# B22: 60154132_60154765_630_CDS_ENSG00000108064_ENST00000373895|human|control|control (ssRNA)
# RNA: GGGAGUUCUACAGUCCGACGAUCUUCAAUCAUUUGUUCUUCCCAAGACUUCAUUUCAUUAUGAUAACGAGUUUCGUCCUCUUUAGCAUGCUGAAUAUAUAAUUCCUUUUCAGAGUCAGACAGAUUUUUCCAGUUUUCCUUUACCAACAGAGGAUUGAGCAUCA
# Target: T1, UNK ZnF1-3 (human, UniProt Q9C0B0 31-174)
# T1 sequence: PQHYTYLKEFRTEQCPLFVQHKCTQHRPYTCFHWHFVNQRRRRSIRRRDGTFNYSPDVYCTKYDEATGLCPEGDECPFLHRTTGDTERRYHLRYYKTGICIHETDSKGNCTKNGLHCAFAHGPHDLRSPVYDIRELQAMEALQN
# Assay: nsRBNS (natural sequence RNA bind-n-seq); RBNS binding buffer (assumed for nsRBNS): 25 mM Tris pH 7.5, 150 mM KCl, 3 mM MgCl2, 0.01% Triton X-100, 500 ug/ml BSA, 20 U/ml SUPERase-In, 4 C; UNK is unkempt and MSI1 is Musashi-1; names of the RNAs are library labels; protein concentration not given here; high values mean tight binding
row,Binder,binding signal [enrichment R]
1,B1,2.56
2,B2,1
3,B3,0.679
4,B4,1.13
5,B5,1.25
6,B6,1.49
7,B7,0.777
8,B8,0.794
9,B9,0.474
10,B10,1.11
11,B11,1.43
12,B12,1.9
13,B13,1.11
14,B14,0.72
15,B15,0.691
16,B16,1.03
17,B17,1.18
18,B18,0.841
19,B19,1.01
20,B20,0.772
21,B21,1.2
22,B22,0.579

# Reference: PMC12136788
